Test results reported in publication PMC4336329 (PLoS ONE, 2015).
About 14,000 (4.5%) of roughly 310,000 compounds showed an effect of 50% or more. Effects have a minus sign here. The list shows a part of the results.

Target: human ether-à-go-go-related gene (hERG) potassium channel (human, UniProt Q12809)
Experiment: primary screen, population patch clamp on CHO cells stably expressing hERG
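Also: peak tail current of the secondary pulse compared with the same well before compound.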

Sequence of human ether-à-go-go-related gene (hERG) potassium channel (Q12809 whole entry, looked up): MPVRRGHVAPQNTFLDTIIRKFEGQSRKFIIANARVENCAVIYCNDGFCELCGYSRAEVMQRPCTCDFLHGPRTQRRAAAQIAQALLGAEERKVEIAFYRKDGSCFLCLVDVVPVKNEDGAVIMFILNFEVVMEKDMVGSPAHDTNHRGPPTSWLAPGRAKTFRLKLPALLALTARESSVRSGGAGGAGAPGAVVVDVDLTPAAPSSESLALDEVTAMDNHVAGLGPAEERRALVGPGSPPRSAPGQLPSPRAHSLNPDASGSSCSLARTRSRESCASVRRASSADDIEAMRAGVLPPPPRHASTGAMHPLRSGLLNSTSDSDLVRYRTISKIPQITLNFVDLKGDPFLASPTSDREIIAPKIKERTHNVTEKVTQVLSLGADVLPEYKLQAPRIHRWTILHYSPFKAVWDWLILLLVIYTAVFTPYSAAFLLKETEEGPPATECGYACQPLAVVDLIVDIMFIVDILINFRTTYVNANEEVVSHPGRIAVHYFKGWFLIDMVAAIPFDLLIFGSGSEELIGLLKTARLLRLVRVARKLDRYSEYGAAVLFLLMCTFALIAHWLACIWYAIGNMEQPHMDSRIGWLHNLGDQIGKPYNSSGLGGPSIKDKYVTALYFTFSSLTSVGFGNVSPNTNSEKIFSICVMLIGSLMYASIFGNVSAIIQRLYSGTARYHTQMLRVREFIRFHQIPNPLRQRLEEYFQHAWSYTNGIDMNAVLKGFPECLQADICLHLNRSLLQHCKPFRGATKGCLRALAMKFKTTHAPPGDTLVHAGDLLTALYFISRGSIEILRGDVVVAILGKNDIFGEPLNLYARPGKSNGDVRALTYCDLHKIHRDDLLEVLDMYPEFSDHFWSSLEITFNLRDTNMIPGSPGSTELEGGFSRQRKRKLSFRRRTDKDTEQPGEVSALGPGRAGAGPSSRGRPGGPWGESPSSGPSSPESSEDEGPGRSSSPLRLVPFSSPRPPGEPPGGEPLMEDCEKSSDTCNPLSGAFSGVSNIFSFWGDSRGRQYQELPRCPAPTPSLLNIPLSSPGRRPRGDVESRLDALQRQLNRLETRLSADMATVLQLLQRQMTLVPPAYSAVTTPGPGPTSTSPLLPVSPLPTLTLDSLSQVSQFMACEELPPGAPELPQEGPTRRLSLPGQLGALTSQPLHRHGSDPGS

SMILES	hERG current change (%, negative = inhibition) at 10uM [%]
CN(C)CCCN(C(=O)c1ccco1)c1nc(-c2ccc(Cl)cc2)cs1.Cl	-72.5
O=C1NCCCC1C(=O)Nc1cccc(C(F)(F)F)c1 (stereo not shown)	-8.78
COc1ccc(NC(=S)N2CCC(C(=O)N3CCCCCC3)CC2)cc1	12.7
CC(=O)[C@@]12O[C@@H]1C[C@H]1[C@@H]3CC[C@H]4C[C@@H](O)CC[C@]4(C)[C@H]3CC[C@@]12C	16.9
CCOC(=O)c1oc2ccccc2c1CSc1nnnn1-c1ccccc1	0.684
NC(=O)c1ccc(NCCc2ccccc2)c([N+](=O)[O-])c1	-23
O=C(Nc1ccccc1N1CCOCC1)c1cc(F)cc(F)c1	0.229
O=C(Nc1nccs1)c1cc([N+](=O)[O-])ccc1Cl	12.8
COc1ccc(-c2cc(C(=O)OC3CCOC3=O)c3ccccc3n2)cc1OC (stereo not shown)	2.82
Cc1ccc(/C=N/N=C2/NC(=O)C(CC(=O)Nc3ccc(Cl)cc3)S2)o1 (stereo not shown)	8.8
Cc1cccc(NC(=S)NC(C)C(c2ccccc2)N2CCN(C)CC2)c1C (stereo not shown)	-50
CC(Oc1ccc(Br)cc1)C(=O)Nc1ccc(S(=O)(=O)N(C)C2CCN(C)CC2)cc1 (stereo not shown)	-26.7
CC(C)NC(=O)CCCn1cc([N+](=O)[O-])cn1	9.98
O=C(NCC1CCCO1)c1cccc2ccccc12 (stereo not shown)	21.2
O=C1S/C(=C/c2ccc(N3CCOCC3)o2)C(=O)N1Cc1c(F)cccc1Cl	-0.91
Oc1ccccc1CN1CCCC(N2CCN(c3cccc(C(F)(F)F)c3)CC2)C1 (stereo not shown)	-61.9
CC(CN1CCOCC1)OC(=O)Cc1ccccc1.Cl (stereo not shown)	8.44
CC(C)(C)c1ccc(OCCC(=O)OCC(=O)NC2CC2)cc1	-3.17
O=C(c1ccc2c(c1)C(=O)N(Cc1ccco1)C2=O)N1CCOCC1	4.54
CC(NC(=O)CN1CCOCC1)c1ccc(F)cc1 (stereo not shown)	10.6
Clc1cccc(CN2CCN(c3nc4nonc4nc3NC3CC3)CC2)c1	-65.4
Cc1ccc(Cn2cnc3c(cnn3C(C)(C)C)c2=O)cc1	4.92

SMILES	hERG current change (%, negative = inhibition) at 10uM [%]
CCOC(=O)c1c(NC(=O)CSc2nnc3c(n2)[nH]c2ccccc23)sc2c1CCN(C)C2	-6.08
Cn1c(CCc2ccccc2)nnc1SCC(N)=O	15.3
CC1CC(=O)Nc2ccccc2N1C(=O)CN1CCN(c2ccccc2)CC1 (stereo not shown)	2.87
COC(=O)C(C)Oc1ccc2cc(-c3ccccc3)c(=O)oc2c1 (stereo not shown)	11.8
Cc1ccc(Cl)cc1NC(=O)CCC(=O)Nc1cc(Cl)ccc1C	19.8
Cc1ccc(C(C(=O)NC2CCCCC2)N(Cc2ccco2)C(=O)Cn2cnc3ccccc32)cc1 (stereo not shown)	-18.8
Cc1ccc(/C=C/c2onc(C)c2S(=O)(=O)N2CCC(C(=O)NC(C)(C)C)CC2)cc1	-4.05
CC1(C)CC(=O)c2c(O)cc(OCc3ccc([N+](=O)[O-])cc3)cc2O1	15.1
Cc1cc(Sc2nnc(/N=C/N(C)C)s2)c2ccccc2n1	8.63
Cc1nn(C2CCS(=O)(=O)C2)c(Cl)c1/C=C/C(=O)OCC(=O)Nc1ccccc1[N+](=O)[O-] (stereo not shown)	23
O=C(Cn1cnc2ccccc21)N/N=C/c1cccs1	12.4
CCC(C)[C@@H](CN(N=O)[C@@H](Cc1ccccc1)CN(C)N=O)N(CCc1ccccc1)N=O.[Na+] (stereo partly shown)	-4.74
N#C/C(=C\c1ccc(F)cc1)c1n[nH]c(Cn2cncn2)n1	17.8
Nc1ccc(C(=O)OCC(=O)Nc2ccc([N+](=O)[O-])cc2C(F)(F)F)cc1	-15.8
O=C(NC1CCCCC1)c1cc2cc(Br)ccc2o1	22.5
Cc1cccc(N2CCN(C(=O)Cc3ccc(-n4c(=O)[nH]c5ccsc5c4=O)cc3)CC2C)c1 (stereo not shown)	0.143
CCN(CC)S(=O)(=O)c1ccc(C)c(NC(=O)COc2ccc(Cl)cc2Br)c1	1.38
COc1cc2c(cc1OC)-c1cc(N3CCc4ccccc43)nc(=O)n1CC2	11.7
COc1cccc(NC(=O)c2c(F)cccc2F)c1	-6.78
CCOCCCNC(=O)c1ccc(CS(=O)(=O)Cc2ccccc2F)o1	-11
COC(=O)c1nn(-c2ccccc2)c(=O)cc1Oc1ccc(Cl)cc1	-13.6
C/C(=N\NC(=O)C1CC1c1ccccc1)c1cccc([N+](=O)[O-])c1 (stereo not shown)	7.21

SMILES	hERG current change (%, negative = inhibition) at 10uM [%]
CC(=O)Nc1ccc(Cc2nc3ccccc3[nH]2)cc1	23.5
Cn1c(=O)c2c(nc(Oc3cccc(Br)c3)n2C)n(C)c1=O	-5.17
CCOC(=O)c1sc(=NC(=O)c2ccc(S(=O)(=O)N(C)c3ccccc3)cc2)n(C)c1C	14.7
O=C(CCn1c(=S)[nH]c2cc3c(cc2c1=O)OCO3)NCc1cccc(Cl)c1	14.7
COc1ccccc1N1CCN(c2ncc(C(=O)N3CCN(c4cccc(Cl)c4)CC3)c3ccccc23)CC1	-10.7
COc1nc(C)ccc1-c1noc(-c2ccncc2)n1	-6.26
CSCCC(NC(=O)COc1ccccc1)C(=O)Nc1ccc(C)cc1 (stereo not shown)	-3.07
COc1ccc(OC)c(-c2nn(-c3ccccc3)cc2C(=O)N2CCc3ccccc3C2)c1	2.08
COc1ccccc1CNC(=O)CSc1ccc(-c2ccccn2)nn1	-17.9
COC(=O)NCC(c1ccco1)N1CCN(c2ccccc2)CC1 (stereo not shown)	7.73
CCN(C(=O)CSc1cc(-c2ccccc2)c2ccc(OC)cc2n1)C1CCS(=O)(=O)C1 (stereo not shown)	-14.2
CCN1CCN(c2nc3ccccc3n3cnnc23)CC1	-14.8
C/C(=N\NC(=O)CNC(=O)c1ccccc1F)c1ccco1	5.9
CC1=C(C)C(=O)OC(C(C)C2CCC3C4CC=C5CC(OC6OC(COC7OC(CO)C(O)C(O)C7O)C(O)C(O)C6O)CC(O)C5(C)C4CCC23C)C1 (stereo not shown)	-3.93
CSc1nnc(CSc2cc(C)nc(N(C)C)n2)o1	-17.3
COc1ccc(Cl)cc1NC(=S)N1CCN(c2ncccn2)CC1	13.6
c1ccc(OCc2nc(-c3ccccc3)no2)cc1	6.52
Cc1ccc(N(C(=O)CNC(=O)c2ccco2)C(C(=O)NC2CCCCC2)c2ccncc2)c(C)c1 (stereo not shown)	8.01
CCN1C(=O)CC(n2c(C)nc3ccccc32)C1=O (stereo not shown)	6.2
C=CCN1C=C2C(=O)C(C)(OC(=O)c3cnc4ccccc4n3)C(=O)C=C2C=C1/C=C/COC (stereo not shown)	-6.07
O=C(COc1ccc2ccccc2c1)N1CCN(c2ccccc2O)CC1	2.1
CCOc1ccccc1Nc1nc(-c2sc(NC(=O)c3ccco3)nc2C)cs1	16.1

SMILES	hERG current change (%, negative = inhibition) at 10uM [%]
Cc1ccc(OCCn2nnc3ccccc32)cc1C	-8.01
COc1cc2c(cc1NS(=O)(=O)N1CCCCC1)oc1ccccc12	1.96
O=C(c1cc(COc2c(F)cccc2F)on1)N1C[C@H]2CC[C@H]1C2	-12.9
COc1cccc(/C=N/n2cnc3cc(C)c(C)cc32)c1OC	18.8
CCc1ccc2[nH]c(C(=O)Nc3ccc(F)cc3Br)cc2c1	25.3
O=C(CCc1ccc(S(=O)(=O)N2CCOCC2)cc1)Nc1ccc2ccccc2c1	-13.8
O=C(CSc1nc(C2CCCCC2)nc2ccccc12)NCc1ccc2c(c1)OCO2	15.4
COc1ccc(C(=O)C2CCCN(Cc3ccccn3)C2)c(OC)c1 (stereo not shown)	-55.7
COc1ccc(OC)c(Nc2nc3nonc3nc2N2CCCC(C)C2)c1 (stereo not shown)	14.3
CC1=C(C#N)C(c2cccnc2)C2=C(CCCC2=O)N1 (stereo not shown)	-3.67
COC(=O)C1CCN(C(=O)COC(=O)CC(NC(N)=O)c2ccc(Cl)cc2)CC1 (stereo not shown)	3.08
C/C=C/C=C/C(=O)Nc1cccc(C2=NOC3(C2)C[C@H](C(N)=O)N(C(=O)CC(c2ccccc2)c2ccccc2)C3)c1 (stereo partly shown)	15.7
CC(C)CCn1c(SCC(=O)NC2CCS(=O)(=O)C2)nc2cc(Cl)ccc2c1=O (stereo not shown)	2.16
O=C(CN1CCCCCCC1)Nc1cccc(Cl)c1Cl	29.8
O=c1ccc(NS(=O)(=O)c2ccccc2Cl)cn1Cc1ccc(Cl)c(Cl)c1	-1.32
CCCCOC(=O)Nc1nnc(CC(=O)NCc2ccccc2)s1	4.3
Cc1ccccc1CS(=O)(=O)c1ncc(Cl)c(C(=O)Nc2ccc(F)cc2)n1	36.1
CCc1ccc(-n2ccc(=O)c(C(=O)O)n2)cc1	18.8
O=C(CSc1ccc(Cl)cc1)Nc1cccc(-c2nc3ccccc3[nH]2)c1	15.7
